{"source": "PubChem BioAssay AID624418", "about": "(National Center for Advancing Translational Sciences (NCATS), 2012)", "note": "Among all 410,000 compounds or so, about 530 (0.13%) were called active. Inconclusive results, whose numbers are uncertain, are shown with a selection of clear calls. Calls follow the shape of the dose curve; as a rule, active = well fitted inhibition curve with a large enough effect; inconclusive = small, poorly fitted or top-dose-only effect, or another doubt; inactive = no such curve, though single readings can be large or run the other way. Where the call is inconclusive, the potency comes from a doubtful curve fit. Potency is read from the fitted curve at half-maximal effect."}
{"assay": "qHTS of GLP-1 Receptor Inverse Agonists: Cytotox Screen", "conditions": "HEK293 cAMP-luciferase reporter cells, luminescence, 24 h; series mostly up to 38.3 µM", "procedure,_shortened": "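1536-well qHTS counterscreen of the MLSMR; 200 cells/uL, 12 h pre-incubation, 23 nL cpd, 24 h at 37 deg C 5% CO2, luciferase detection reagent, 12 min RT, luminescence. Inhibition = undesired.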"}
{"compound": "O=C(CSc1nc2c([nH]c3ccccc32)c(=O)n1-c1ccc(F)cc1)NCc1ccc(F)cc1", "Potency": "inactive"}
{"compound": "CCOc1ccc(CCNC(=O)c2ccc3c(c2)nc2n3CCOC2)cc1OCC", "Potency": "inactive"}
{"compound": "CCCCOP(=O)(OCCCC)C1(NS(=O)(=O)c2ccccc2)C=CC(=O)c2ccccc21", "note": "(stereo not given)", "Potency": "inconclusive: 12.6 µM [inhibitor, single point]"}
{"compound": "O=C(Nc1cc(=O)[nH]c(=O)[nH]1)c1cc(Cl)ccc1Cl", "Potency": "inconclusive: 31.6 µM [inhibitor, partial curve, poor fit]"}
{"compound": "Cc1csc(NC(C)c2nc3cc(Cl)c(Cl)cc3n2CCCO)n1", "note": "(stereo not given)", "Potency": "inconclusive: 28.2 µM [inhibitor, single point]"}
{"compound": "Cn1ccnc1COc1ccc(/C=N/O)cc1", "Potency": "inconclusive: 11.2 µM [inhibitor, partial curve]"}
{"compound": "O=C(Nc1nnc(-c2ccc3c(c2)CCCC3)o1)c1ccccc1", "Potency": "inconclusive: 14.1 µM [inhibitor, single point]"}
{"compound": "COC(=O)c1cc(NCc2cccs2)ccc1N1CCOCC1", "Potency": "inactive"}
{"compound": "CCOc1ccccc1N(C)C(=O)c1cc2c(=O)n(CC)c3ccccc3c2s1", "Potency": "inconclusive: 14.1 µM [inhibitor, single point]"}
{"compound": "CCCCNC(=O)c1sc(=S)n2c1[nH]c(=O)c1ccccc12", "Potency": "inconclusive: 11.2 µM [inhibitor, single point]"}
{"compound": "Cc1ccc(Cn2ccnc2SCC(=O)Nc2ccccc2C(F)(F)F)cc1", "Potency": "inactive"}
{"compound": "O=C(O)c1ccc(CNS(=O)(=O)c2ccc3ccccc3c2)cc1", "Potency": "inconclusive: 0.501 µM [inhibitor, full curve, poor fit]"}
{"compound": "CCc1nn2c(N)c(/C=C3\\C=Nc4ccccc43)c(=O)nc2s1", "Potency": "inconclusive: 17.8 µM [inhibitor, partial curve, poor fit]"}
{"compound": "COC(=O)CCCC1=CC2=C(c3ccccc3)C(=O)C(C)(OC(=O)C3CCCC3)C(=O)C2=CN1Cc1ccc2c(c1)OCO2", "note": "(stereo not given)", "Potency": "inconclusive: 28.2 µM [inhibitor, single point]"}
{"compound": "N#Cc1c(-c2cccs2)cc(-c2cccs2)[nH]c1=O", "Potency": "inconclusive: 2 µM [inhibitor, partial curve, poor fit]"}
{"compound": "Cc1ccc2nc(-c3ccc(NC(=S)NC4CC(C)(C)NC(C)(C)C4)cc3)sc2c1", "Potency": "inconclusive: 28.2 µM [inhibitor, single point]"}
{"compound": "CCN1CCN(c2ccc(S(=O)(=O)N3CCCCC3)cc2NC(=O)/C=C/c2cccc(OC)c2OC)CC1", "Potency": "inconclusive: 28.2 µM [inhibitor, single point]"}
{"compound": "CCN(CC)c1ccc(/C=C2/SC(=O)N(C(C)C)C2=O)o1", "Potency": "inconclusive: 10 µM [inhibitor, partial curve, poor fit]"}
{"compound": "COc1cc(NC(=O)c2cccc(C)c2)c(OC)cc1NC(=O)CN1CCCCC1", "Potency": "inconclusive: 20 µM [inhibitor, single point]"}
{"compound": "Cc1cc2c(cc3c(SCC(=O)Nc4cccc(Cl)c4C)nnc(C)n32)o1", "Potency": "inactive"}
{"compound": "Cc1sc(NC(=O)CS(=O)(=O)c2ccccc2)c(C(N)=O)c1C", "Potency": "inactive"}
{"compound": "O=C1C(=Cc2ccccn2)CCc2ccccc21", "Potency": "inconclusive: 31.6 µM [inhibitor, partial curve, poor fit]"}
{"compound": "COc1ccccc1N1CCN(C(=O)c2cnc(N3CCCCC3)c3ccccc23)CC1", "Potency": "inconclusive: 5.62 µM [inhibitor, full curve]"}
{"compound": "CSc1ccccc1CNc1nc(NCC2CC2)nc2ccsc12", "Potency": "inconclusive: 7.94 µM [inhibitor, partial curve, poor fit]"}
{"compound": "Nc1[nH]c(C(=O)c2ccccc2)c(-c2ccc(Cl)cc2Cl)c1C(=O)c1ccc(Br)cc1", "Potency": "inactive"}
{"compound": "COc1ccc(NC(=O)CN(C)C(=O)CCc2ccccc2)cc1", "Potency": "inconclusive: 28.2 µM [inhibitor, single point]"}
{"compound": "CCN(CC)CCn1c(=N)n(CCOc2ccccc2)c2ccccc21", "Potency": "inconclusive: 2.24 µM [inhibitor, full curve]"}
{"compound": "O=C(N/N=C/c1cc(Cl)cc([N+](=O)[O-])c1O)c1ccc2c(c1)OCO2", "Potency": "inconclusive: 10 µM [inhibitor, single point]"}
{"compound": "CCN1CCN(c2cc(-c3ccccc3)nc3cc(-c4cccc(F)c4)nn23)CC1", "Potency": "inconclusive: 31.6 µM [inhibitor, single point]"}
{"compound": "FC(F)(F)c1ccc(/C=N/NC(=S)NC2CCCCC2)cc1", "Potency": "inconclusive: 0.501 µM [inhibitor, full curve, poor fit]"}
{"compound": "C=C(C)CNC(=S)N/N=C(\\C)c1ccc(OC)cc1", "Potency": "inconclusive: 5.62 µM [inhibitor, partial curve, poor fit]"}
{"compound": "CCCOC(=O)c1ccc(-c2ccc(C=O)o2)cc1", "Potency": "inactive"}
{"compound": "COC(=O)c1cc(OC)c(OC)cc1NC(=O)Cn1nnc(-c2ccccc2Cl)n1", "Potency": "inconclusive: 1 µM [inhibitor, full curve, poor fit]"}
{"compound": "CCC(C)Cn1c(O)cc2nn(-c3nc4ccccc4s3)c(=O)c-2c1C", "note": "(stereo not given)", "Potency": "inconclusive: 0.501 µM [inhibitor, full curve, poor fit]"}
{"compound": "CN(C(=O)CSc1nc(-c2ccc(C(C)(C)C)cc2)c(C#N)c(=O)[nH]1)C1CCCCC1", "Potency": "inconclusive: 28.2 µM [inhibitor, single point]"}
{"compound": "c1ccc(-c2cc3nc(NCC4CC4)nc(NCC4CCCCC4)c3s2)cc1", "Potency": "inconclusive: 8.91 µM [inhibitor, partial curve, poor fit]"}
{"compound": "COc1ccc(N2CCc3c(C)nc4c(OC)cc(OC)cc4c32)cc1", "Potency": "inconclusive: 12.6 µM [inhibitor, single point]"}
{"compound": "CCCCC[C@H](C)N1C[C@@H](COCc2ccccc2)Oc2cc(N3CC[C@@H](O)C3)ccc2S1(=O)=O", "Potency": "inconclusive: 25.1 µM [inhibitor, single point]"}
{"compound": "O=S(=O)(/N=C(/NC(=S)Nc1ccccc1)c1ccccc1)c1ccc(Cl)cc1", "Potency": "inconclusive: 28.2 µM [inhibitor, single point]"}
{"compound": "COc1ccc(Cl)cc1NC(=O)C1CC(c2ccccc2O)=NO1", "note": "(stereo not given)", "Potency": "inconclusive: 2.82 µM [inhibitor, partial curve, poor fit]"}
